# Results published in the supplement of paper PMC7826260.
# The list shows a part of the results. Viral Rep nickase domains cut single-stranded DNA in vitro for 1 h at 37 °C with 3 µM enzyme; only the middle of the 90-letter strands is printed. Uncut reads are compared with the no-enzyme pool on a log2 scale; more negative means more cut, near 0 not cut, and no call is made. Counts are relative to all reads; values above 0 arise when much of the pool is cut.
# Columns and labels:
# Experiment in all cases: uncleaved DNA left, log2 of reads against the no-enzyme library (log2 ratio); higher = less cleavage (more negative = more Rep cleavage of the k-mer); sequences stand for … in CTCGTCCG…ACCGGAGA
# [1] = tested on: T1, Rep nickase domain of Muscovy duck circovirus
# T1 sequence (residues 1-111, tag not shown): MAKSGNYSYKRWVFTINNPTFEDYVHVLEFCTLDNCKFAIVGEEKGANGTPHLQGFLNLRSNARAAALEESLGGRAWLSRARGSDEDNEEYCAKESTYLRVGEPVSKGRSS
# Experimental: (§1)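 A pool of 90-nt single-stranded DNAs with seven random bases just before the constant AC of the nick site (name = the seven bases) was cut by 3 µM recombinant His6-SUMO-tagged Rep nickase domain (300 nM DNA, 50 mM HEPES pH 8.0, 50 mM NaCl, 1 mM MnCl2, 1 h, 37 °C, three replicates). Uncut DNA was amplified and sequenced.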
# [2] = tested on: T2, Rep nickase domain of banana bunchy top virus
# T2 sequence (residues 1-94, tag not shown): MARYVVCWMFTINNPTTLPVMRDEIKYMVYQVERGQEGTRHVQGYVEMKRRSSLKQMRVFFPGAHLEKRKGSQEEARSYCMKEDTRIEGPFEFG
# Experimental: as §1
# [3] = tested on: T3, Rep nickase domain of cabbage leaf curl virus
# T3 sequence (residues 1-116, tag not shown): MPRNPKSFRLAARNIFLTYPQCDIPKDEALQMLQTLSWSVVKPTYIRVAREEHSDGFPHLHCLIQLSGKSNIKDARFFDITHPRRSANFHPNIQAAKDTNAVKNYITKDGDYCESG
# Experimental: as §1
# [4] = tested on: T4, Rep nickase domain of chickpea chlorotic dwarf virus
# T4 sequence (residues 1-124, tag not shown): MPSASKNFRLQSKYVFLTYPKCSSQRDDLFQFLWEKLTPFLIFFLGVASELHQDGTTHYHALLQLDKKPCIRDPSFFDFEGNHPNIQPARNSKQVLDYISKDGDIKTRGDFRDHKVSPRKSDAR
# Experimental: as §1
# [5] = tested on: T5, Rep nickase domain of faba bean necrotic yellows virus
# T5 sequence (residues 1-98, tag not shown): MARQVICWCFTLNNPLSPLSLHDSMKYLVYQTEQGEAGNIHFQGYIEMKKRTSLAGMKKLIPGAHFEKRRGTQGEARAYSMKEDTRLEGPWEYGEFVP
# Experimental: as §1
# [6] = tested on: T6, Rep nickase domain of maize striate mosaic virus
# T6 sequence (residues 1-117, tag not shown): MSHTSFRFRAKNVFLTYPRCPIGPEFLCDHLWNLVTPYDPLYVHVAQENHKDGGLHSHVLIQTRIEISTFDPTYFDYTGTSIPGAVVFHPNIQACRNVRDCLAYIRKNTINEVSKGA
# Experimental: as §1
# [7] = tested on: T7, Rep nickase domain of porcine circovirus 2
# T7 sequence (residues 2-116, tag not shown): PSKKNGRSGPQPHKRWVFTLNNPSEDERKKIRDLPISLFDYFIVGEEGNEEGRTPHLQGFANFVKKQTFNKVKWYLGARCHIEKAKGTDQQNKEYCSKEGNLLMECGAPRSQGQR
# Experimental: as §1
# [8] = tested on: T8, Rep nickase domain of tomato golden mosaic virus
# T8 sequence (residues 1-124, tag not shown): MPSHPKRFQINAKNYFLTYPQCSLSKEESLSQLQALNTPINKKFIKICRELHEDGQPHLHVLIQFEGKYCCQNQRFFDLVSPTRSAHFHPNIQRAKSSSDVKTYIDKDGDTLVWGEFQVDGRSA
# Experimental: as §1
# [9] = tested on: T9, Rep nickase domain of tomato yellow leaf curl virus
# T9 sequence (residues 1-136, tag not shown): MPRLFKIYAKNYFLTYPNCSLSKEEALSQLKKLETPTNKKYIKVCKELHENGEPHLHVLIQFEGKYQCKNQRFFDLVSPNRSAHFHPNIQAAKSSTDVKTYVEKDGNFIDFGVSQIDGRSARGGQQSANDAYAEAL
# Experimental: as §1
# [10] = tested on: T10, Rep nickase domain of wheat dwarf virus
# T10 sequence (residues 1-137, tag not shown): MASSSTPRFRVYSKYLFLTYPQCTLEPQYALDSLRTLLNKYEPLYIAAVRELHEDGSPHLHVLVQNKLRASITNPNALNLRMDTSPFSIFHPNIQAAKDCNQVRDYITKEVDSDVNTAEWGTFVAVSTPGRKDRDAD
# Experimental: as §1
Sequence,uncleaved DNA left (log2) [1],uncleaved DNA left (log2) [2],uncleaved DNA left (log2) [3],uncleaved DNA left (log2) [4],uncleaved DNA left (log2) [5],uncleaved DNA left (log2) [6],uncleaved DNA left (log2) [7],uncleaved DNA left (log2) [8],uncleaved DNA left (log2) [9],uncleaved DNA left (log2) [10]
GGAGAGA,0.0706,0.195,0.983,1.94,0.125,2.16,0.324,0.174,0.0768,0.257
ATACTGT,0.0466,-0.0632,-0.155,-0.159,0.0714,0.208,0.065,0.0404,-0.0911,0.076
TGAATTG,-0.141,-0.0403,-0.269,-0.347,-0.0281,-0.729,0.0978,-0.156,-0.106,-0.124
GAACGTC,-0.0385,-0.0603,0.272,0.328,-0.139,0.799,-0.00417,-0.0782,-0.0535,-0.0192
GTCCACC,-0.0918,0.0643,0.326,0.774,0.0172,1.44,-0.0775,0.0158,0.0662,-0.00684
ACCAGCC,0.000746,0.0729,-0.331,-0.522,0.126,-0.888,0.193,0.0789,0.0614,-0.0251
AGGGTCA,-0.0767,-0.00339,0.265,0.908,-0.0873,1.32,-0.0546,0.0223,-0.0255,0.0288
TTAGGTA,-0.0202,-0.0515,0.399,1.02,-0.0687,1.47,0.0467,0.0552,-0.0963,0.0334
GTTGGAA,0.0241,0.132,0.297,0.824,0.0693,1.81,0.13,0.163,0.0466,-0.0436
GGAAACG,-0.0139,-0.0457,-0.429,-0.158,0.133,-0.489,0.253,-0.0168,-0.00779,-0.12
TACCACT,-0.0873,-0.103,-1.15,-3.17,0.00913,-0.915,-2.65,-0.0399,-0.0448,-0.19
TAATGTA,-2.7,-0.115,-2.99,-2.81,-0.123,-2.3,-3.07,-3.02,-0.0267,-3.01
ATAGCTT,0.0364,-0.106,0.0136,-1.12,-0.063,0.382,0.0285,0.088,-0.196,-0.000365
TTTAACG,-0.0317,-0.0732,-0.819,-0.795,-0.0206,-1.28,0.144,0.0209,0.0498,-0.119
GCGTCTT,-0.403,-0.182,0.0117,-0.347,-0.153,0.998,-2.44,-0.104,0.0254,-0.00355
GCGCGAA,-0.0839,-0.144,-0.419,-0.262,-0.0845,-0.527,-0.0851,-0.0971,-0.222,-0.21
GTTCACT,0.0649,0.0303,0.318,0.659,-0.0143,1.65,0.0121,0.019,0.0438,0.111
TCTCGAC,0.095,-0.0954,0.139,-0.546,0.0135,-0.216,-0.0135,0.117,-0.0017,-0.103
TGGGGTA,0.164,0.112,0.662,1.32,0.135,1.9,0.304,0.147,0.173,0.3
TACATCC,-0.0483,0.0235,-0.0142,-0.796,-0.0456,-0.223,-0.0254,-0.0627,0.0679,-0.0082

Sequence,uncleaved DNA left (log2) [1],uncleaved DNA left (log2) [2],uncleaved DNA left (log2) [3],uncleaved DNA left (log2) [4],uncleaved DNA left (log2) [5],uncleaved DNA left (log2) [6],uncleaved DNA left (log2) [7],uncleaved DNA left (log2) [8],uncleaved DNA left (log2) [9],uncleaved DNA left (log2) [10]
TGCTGCT,-0.622,-0.0536,-0.298,-0.867,0.0795,-0.781,-1.84,-0.0414,-0.0589,-0.144
GAATTTA,-0.0316,0.144,-0.0594,-0.775,0.139,0.932,-0.454,0.0629,0.125,-0.0144
TTCCAGT,0.0707,0.0352,0.0778,-0.41,-0.0311,-0.566,0.000864,-0.0851,0.0349,-0.00512
AAGGCGA,-0.00624,-0.116,-0.665,-0.674,0.0909,-0.936,-0.0262,-0.0946,-0.0911,-0.0395
GTGCCCG,-0.0257,0.00193,-0.381,-0.282,0.0122,-0.478,-0.178,0.0281,0.022,-0.0102
TACATGC,0.0201,-0.0672,-0.724,-0.539,0.048,-1.29,0.131,-0.13,-0.0218,-0.0941
CGGTCGC,-0.169,-0.0531,0.139,1.12,-0.129,1.08,-0.0363,-0.0568,-0.0483,-0.146
GTGCGGT,-0.0361,-0.197,-0.204,-0.000666,-0.125,-0.21,0.0545,-0.0441,-0.056,-0.0801
AGTGGAT,-0.0342,-0.109,0.164,1.47,-0.0244,1.73,-0.024,-0.125,-0.266,-0.176
CGAACTA,-0.0751,-0.0277,-0.129,-0.0976,0.00215,0.73,-0.153,-0.185,-0.0683,0.0729
AGTAACA,0.0801,0.11,-0.14,-1.37,0.0509,0.0566,-0.387,0.163,0.0587,0.119
ACGAATG,-0.108,0.103,-0.0793,0.497,0.0751,0.807,0.135,-0.0411,-0.157,-0.0831
GGGCTCA,0.0369,0.0314,0.833,1.9,-0.0901,2.21,0.164,0.0212,0.126,0.151
CTGTGCC,0.148,-0.0701,-0.205,-0.533,-0.00489,-0.823,0.00815,-0.0945,0.00702,-0.0947
ATTTCTC,-0.0383,-0.135,0.0166,-0.269,-0.00195,-0.72,-0.109,0.0102,-0.00732,0.0694
CTTGAAG,0.061,-0.0735,-0.729,-0.506,0.0551,-0.984,0.0791,-0.126,-0.0361,-0.0899
GCCAATA,0.0134,0.057,0.186,-0.0248,0.0616,0.11,0.116,0.0228,0.226,0.043
GATGTAC,0.0214,-0.0804,0.172,0.513,0.0196,0.84,0.0315,-0.047,-0.00545,-0.00707
ACAGGAC,0.148,0.153,0.479,1.36,0.0153,1.04,0.315,0.175,0.0877,0.189
CCTCCGC,-0.0645,-0.121,-0.187,-0.806,0.0403,-0.772,0.0472,-0.0276,-0.0848,-0.0702

Sequence,uncleaved DNA left (log2) [1],uncleaved DNA left (log2) [2],uncleaved DNA left (log2) [3],uncleaved DNA left (log2) [4],uncleaved DNA left (log2) [5],uncleaved DNA left (log2) [6],uncleaved DNA left (log2) [7],uncleaved DNA left (log2) [8],uncleaved DNA left (log2) [9],uncleaved DNA left (log2) [10]
TAGTTGA,0.019,0.0923,0.059,-0.467,0.153,-0.651,-2.78,0.0446,0.0975,0.0967
GTCCCCT,0.102,0.0678,0.234,0.543,-0.0455,1.57,-0.103,-0.0871,0.118,0.0493
ATTCACT,-2.9,-1.56,-0.242,-2.63,-0.0663,-0.771,-3.48,-0.105,0.0122,-0.122
GGTAAAA,0.115,0.167,0.6,1.43,0.0607,1.91,0.274,0.159,0.266,0.239
CGCGAGT,0.0597,-0.111,-0.0695,0.0636,-0.0453,0.021,-0.0634,-0.0439,-0.0587,-0.153
CCTGCGA,-0.0345,-0.329,-0.794,-0.27,-0.0493,-0.833,-0.108,-0.166,-0.183,-0.183
GTGCCTA,0.0419,0.161,0.367,0.905,0.0532,1.72,0.00255,0.0796,0.091,0.205
CCTAGGG,-0.0984,-0.106,-0.28,-0.214,-0.00164,-0.673,0.145,0.0204,-0.12,-0.0848
CCAAAAC,-0.0235,-0.0448,0.0188,-0.499,0.0792,-0.814,0.0879,0.011,-0.0337,0.0373
CACCTTG,0.138,0.0878,-0.517,-1.41,0.157,-0.932,-0.091,-0.0101,0.0782,-0.00653
AGGGATG,-0.0173,-0.0269,0.0834,0.671,0.0467,0.989,0.125,0.17,-0.054,0.107
TGGCGCT,-0.0858,-0.181,-0.444,-0.723,-0.131,-0.744,-0.137,-0.175,-0.22,-0.277
GCTTCAT,0.0165,0.0652,0.197,0.62,-0.0911,0.683,-0.201,0.034,0.0701,0.111
CCAGGCA,0.0928,0.0036,-0.0355,0.185,0.0186,-0.554,0.0426,0.104,0.0646,0.115
AGGGATT,-0.0649,-0.0371,0.211,1.41,-0.0989,1.7,0.0663,0.195,-0.0424,0.00308
GATATTC,0.117,0.0551,0.481,0.955,0.122,1.28,0.185,0.0537,0.0541,0.104
GTAGCAC,-0.0342,-0.012,0.208,0.699,-0.178,1.22,-0.0899,-0.107,-0.0566,-0.06
CGGCCTC,0.0235,-0.0239,0.0963,0.428,-0.0618,1.04,0.00925,0.0518,0.0474,0.0857
ACGGTAA,-0.00223,0.00399,0.0235,0.106,0.114,-0.0516,0.131,0.2,-0.0187,0.0833
ATTCTGC,0.0108,0.0206,-0.369,-0.479,-0.00244,-1.14,0.0441,-0.0187,0.00556,-0.0313
